Hit rate of the full screen: of about 360,000 compounds, about 520 (0.14%) were called active. Inconclusive means that the source gave no clear call. Such entries were picked first, then a sample of the others. Calls follow the shape of the dose curve; as a rule, active = well fitted inhibition curve with a large enough effect; inconclusive = small, poorly fitted or top-dose-only effect; inactive = no such curve, though single readings can be large or run the other way. Potencies of inconclusive entries are left out as doubtful fits.
These molecules were tested against Rap guanine nucleotide exchange factor 3 (Homo sapiens) (UniProt O95398) (assay: qHTS for Antagonist of cAMP-regulated guanine nucleotide exchange factor 3 (EPAC1): primary screen). Conditions: EPAC1 GEF assay, Rap1b-BODIPY-GDP exchange fluorescence; activity change, negative = inhibition: at 115 µM (top of the series).
Also: nearly all actives have a fitted effect of over 50% in size.
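For activity change, negative = inhibition in this document: plate controls were vehicle for no effect and positive control for full effect.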
Potency is read from the fitted curve at half-maximal effect; tags tell the direction and shape of the fitted curve.

Chain of UniProt O95398 (O95398 whole entry, looked up): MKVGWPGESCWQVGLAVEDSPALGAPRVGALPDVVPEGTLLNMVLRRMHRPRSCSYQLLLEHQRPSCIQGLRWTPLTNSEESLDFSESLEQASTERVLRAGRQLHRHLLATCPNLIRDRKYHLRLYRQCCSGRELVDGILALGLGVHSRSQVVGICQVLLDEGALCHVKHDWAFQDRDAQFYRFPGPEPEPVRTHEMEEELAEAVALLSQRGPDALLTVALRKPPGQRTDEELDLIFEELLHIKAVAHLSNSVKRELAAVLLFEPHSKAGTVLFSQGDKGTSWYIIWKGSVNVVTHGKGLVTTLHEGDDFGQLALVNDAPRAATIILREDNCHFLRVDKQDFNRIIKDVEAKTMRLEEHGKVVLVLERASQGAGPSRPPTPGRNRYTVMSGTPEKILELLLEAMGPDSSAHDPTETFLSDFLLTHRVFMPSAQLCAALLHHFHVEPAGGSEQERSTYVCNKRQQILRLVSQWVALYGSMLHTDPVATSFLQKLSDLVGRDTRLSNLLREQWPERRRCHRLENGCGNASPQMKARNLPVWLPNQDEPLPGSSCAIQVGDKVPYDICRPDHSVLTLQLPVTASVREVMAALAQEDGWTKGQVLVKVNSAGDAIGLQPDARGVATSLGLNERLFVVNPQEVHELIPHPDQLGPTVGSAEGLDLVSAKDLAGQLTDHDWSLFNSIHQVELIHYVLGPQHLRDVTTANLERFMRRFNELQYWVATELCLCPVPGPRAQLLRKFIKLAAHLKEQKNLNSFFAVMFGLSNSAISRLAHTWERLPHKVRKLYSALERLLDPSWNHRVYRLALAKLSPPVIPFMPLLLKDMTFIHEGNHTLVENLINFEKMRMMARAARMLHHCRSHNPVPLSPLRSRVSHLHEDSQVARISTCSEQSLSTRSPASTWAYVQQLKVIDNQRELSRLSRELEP

Compound	Potency	activity change, negative = inhibition
CS(=O)(=O)N1CCC(C(=O)Nc2ccc(Br)cc2F)CC1	inactive	–
COc1ccc(N(CC(=O)NCc2ccc3c(c2)OCO3)C(=O)c2csnn2)cc1	inconclusive [inhibitor, single point]	–
CC(C)(C)c1ccc(S(=O)(=O)/N=C2\C=C(NS(=O)(=O)c3ccccc3)C(=O)c3ccccc32)cc1	inconclusive [inhibitor, partial curve]	–
COc1ccc2nc(SCC(=O)Nc3cc(OC)c(OC)cc3C(=O)O)c(C)cc2c1	inconclusive [inhibitor, full curve, poor fit]	–
Nn1cc(-c2ccccc2)nc1SCC(=O)NCCc1ccccc1	inconclusive [inhibitor, single point]	–
COc1ccc2c(/C=N/NS(=O)(=O)c3ccc(C)cc3)c[nH]c2c1	inconclusive [inhibitor, single point]	–
O=C(Oc1ccc2ccc(=O)oc2c1)c1ccco1	inactive	–
O=c1c2ccccc2nc(N/N=C/c2c(O)ccc3ccccc23)n1O	inconclusive [inhibitor, full curve, poor fit]	–
CN(CC(=O)Nc1cccc(F)c1)C(=O)c1cccc(-n2cccc2)c1	inconclusive [inhibitor, partial curve]	–
CCCCC(CC)C(=O)Oc1ccc(O)c(C(C)(C)C)c1 (stereo not given)	inconclusive [inhibitor, full curve]	–
CCOC(=O)c1nc2ccccc2c(C)c1C	inconclusive [inhibitor, partial curve]	–
O=C(/C=C/c1ccccc1)c1cc(Br)ccc(=O)c1O	inconclusive [inhibitor, partial curve]	–
COc1ccc(O)c(C(=O)c2cc(SCC(=O)O)c3nc4sc5c(c4c(=O)n3c2)CCCC5)c1	inconclusive [inhibitor, full curve]	–
O=C(CCCNC(=O)c1ccc(Cl)cc1)Nc1ccc(Br)cc1	inconclusive [inhibitor, full curve]	–
COc1ccc(CCN=C(N)NS(=O)(=O)c2ccc(C)c(C)c2)cc1	inconclusive [inhibitor, partial curve]	–
Oc1ccc(/C=N/N=C(c2ccccc2)c2ccccc2)c(O)c1O	inconclusive [inhibitor, full curve]	–
Cc1cccc(NC(=S)NC(=O)c2oc3ccccc3c2C)n1	inconclusive [inhibitor, single point]	–
Cc1ccc(S(=O)(=O)N2[C@@H](c3cccc(Cl)c3)C(C(=O)OC(C)(C)C)=CC[C@H]2c2ccc(C(C)C)cc2)cc1	inactive	–
CCOc1ccc(NC2=CC(=O)C(=O)c3ccccc32)cc1	inactive	–
CC(=O)Nc1ccc(C=NNc2ccc(S(=O)(=O)Nc3ccccc3C(=O)O)cc2[N+](=O)[O-])cc1	active: 79.4 µM	–
O=C(Nc1nnc(-c2ccccc2Cl)o1)c1ccc(S(=O)(=O)N2CCCCCC2)cc1	inconclusive [inhibitor, single point]	–
Cc1ccc(NC(=O)CN2C(=O)S/C(=C\c3cc(C)n(-c4cccc(C(=O)O)c4)c3C)C2=O)cc1	inconclusive [inhibitor, partial curve]	–
Fc1ccccc1OCC1CCCN(Cc2nc(CC3CC3)no2)C1 (stereo not given)	inactive	–
CC(C)(C)c1ccc(Oc2ccc(NC(=O)c3ccccc3C(=O)O)cn2)cc1	inconclusive [inhibitor, single point]	–

Compound	Potency	activity change, negative = inhibition
COc1ccccc1CNCC(=O)Nc1ccc(C(F)(F)F)cc1	inactive	–
Cc1ccc(S(=O)(=O)N2CCN(S(=O)(=O)N3CCCCC3)CC2)cc1	inconclusive [inhibitor, single point]	–
O=[N+]([O-])c1ccccc1-c1ccc(C(=S)N2CCCC2)o1	inactive	–
CCOC(=O)C1CCCN(C(=O)CC(C)c2ccccc2)C1 (stereo not given)	inactive	–
CCOc1ccc(CNC(=O)c2ccc(Sc3ccc(C)cc3)c(NC(C)=O)c2)cc1	inconclusive [inhibitor, full curve, poor fit]	–
COc1ccc(-n2cnc3cc(NCc4cccs4)ccc32)cc1	inconclusive [inhibitor, partial curve]	–
COc1ccc(NS(=O)(=O)c2ccc(Cl)c(N)c2)cc1Br	inconclusive [inhibitor, partial curve, poor fit]	–
O=C(CN1CCCCCC1)Nc1ccccc1Oc1ccccc1	inactive	–
Cc1cc(Cl)ccc1OCC(=O)N[C@@H](Cc1ccccc1)c1nc2ccccc2[nH]1	inconclusive [inhibitor, partial curve]	–
CC(C1CC1)N(Cc1ccccc1)C(=S)Nc1cccc(C(F)(F)F)c1 (stereo not given)	inconclusive [inhibitor, full curve, poor fit]	–
CSCCC(C(=O)Nc1c(C)cccc1C)N1CCC(Cc2ccccc2)CC1 (stereo not given)	inactive	–
Cc1ccccc1NC(=O)Cc1nc(COC(=O)c2ccc(S(C)(=O)=O)c([N+](=O)[O-])c2)cs1	inconclusive [inhibitor, full curve]	–
CCN(CC(=O)NCc1cccs1)CC(=O)Nc1cccc(S(N)(=O)=O)c1	inconclusive [inhibitor, single point]	–
CC(C)n1c(-c2ccc(C(C)(C)C)cc2)n[nH]c1=S	inactive	–
O=C(Cc1c(Cl)cccc1Cl)N/N=C/c1cccnc1	inactive	–
COc1ccc(NC(=O)CN2C(=O)COc3ccc(S(=O)(=O)N4CCCCC4)cc32)c(OC)c1	inconclusive [inhibitor, full curve, poor fit]	–
O=C(CSc1nnnn1-c1ccccc1)N1CCNC1=O	inconclusive [inhibitor, partial curve]	–
C[C@H](NC(=O)c1nc[nH]c1C(=O)N[C@@H](Cc1ccccc1)C(=O)OC(C)(C)C)c1ccccc1	inconclusive [inhibitor, partial curve]	–
CSc1nc2ccc(NC(=O)NC(=O)c3c(F)cccc3F)cc2s1	inactive	–
Cc1ccccc1C1c2[nH]c3ccccc3c2C[C@H]2C(=O)N(c3ccccc3C(=O)NCCCN3CCOCC3)C(=O)N12 (stereo not given in full)	inconclusive [inhibitor, partial curve]	–
COc1cc(/C=C2\SC(=S)N(NC(=O)c3cccc(O)c3)C2=O)ccc1O	inconclusive [inhibitor, single point]	–
C=CCOc1ccc(CNCC2CCCO2)cc1 (stereo not given)	inactive	–
Cc1nc2ccccc2n1CCOc1ccc(F)cc1	inconclusive [inhibitor, single point]	–
O=C(/C=C/Nc1cccc(C(F)(F)F)c1)c1ccc(Oc2ncccn2)cc1	inconclusive [inhibitor, full curve]	–

Compound	Potency	activity change, negative = inhibition
COc1ccc(CS(=O)/C(Cl)=C(/Cl)C(=O)Nc2ccc(OC)nc2)cc1 (stereo not given)	inconclusive [inhibitor, partial curve, poor fit]	–
O=C(CSc1nnc(-c2ccncc2)o1)NCc1ccccc1	inconclusive [inhibitor, single point]	–
CN1OC[C@@H]2CN(C(=O)C(C)(C)C)[C@H](c3ccc(-c4cc5ccccc5o4)cc3)C[C@@H]21	inactive	–
CCN(CC)C1=N/C(=C\c2ccco2)C(=O)N1c1ccccc1	inactive	–
O=[N+]([O-])c1cc(/C=N/O)ccc1Oc1ccccc1Cl	inactive	–
Oc1c(Br)cc(/C=N/Nc2ccc(Cl)nn2)cc1Br	active: 25.1 µM	–
O=S(=O)(Nc1nc(-c2ccccc2)cs1)c1cccc(C(F)(F)F)c1	inconclusive [inhibitor, partial curve]	–
CCCOc1cccc(C2C(C(=O)c3ccco3)=C(O)C(=O)N2c2nnc(C)s2)c1 (stereo not given)	inactive	–
Cc1noc(C(=O)Nc2ccc3c(c2)OCO3)c1Cl	inconclusive [inhibitor, partial curve]	–
O=C(O)c1ccccc1C(=O)NCc1ccc2c(c1)OCO2	inconclusive [inhibitor, partial curve, poor fit]	–
CCCNC(=O)c1cc2c(c(-c3cccc(-c4ccccc4F)c3)n1)[C@@H](CCO)N(C(=O)CC1CC1)C2	inactive	–
O=c1[nH]nnc2c1ncn2C1OC(CO)C(O)C1O (stereo not given)	inactive	–
COc1ccc(OC)c(NC(=O)CCOc2cccc(C)c2)c1	–	inconclusive: -30.9% [inhibitor]
CC1=NN(c2ccccc2)C(=O)/C1=C\C=C\c1ccccc1	inactive	–
O=C(/C=C/c1ccc(Cl)cc1)NCc1cccs1	inactive	–
COc1ccccc1OCCC(=O)Nc1cccc(S(=O)(=O)N2CCOCC2)c1	inactive	–
c1ccc(C2=Nc3ccccc3OC2)cc1	inconclusive [inhibitor, single point]	–
O=[N+]([O-])c1cc2ccccc2c(O)c1O	inconclusive [inhibitor, partial curve]	–
CSc1cccc(NC(=O)N2CCc3ccc(NC(=O)c4ccccn4)cc3C2)c1	inconclusive [inhibitor, full curve, poor fit]	–
CN1CC=C2C(C#N)=C(N)C(C#N)(C#N)C(c3ccsc3)C2C1 (stereo not given)	inconclusive [inhibitor, partial curve]	–
O=c1cc(O)nc(SCc2ccc(Cl)cc2)[nH]1	inconclusive [inhibitor, single point]	–
Cc1ccc2cc(C3CC(c4ccco4)=NN3S(C)(=O)=O)c(Cl)nc2c1 (stereo not given)	inconclusive [inhibitor, single point]	–

From PubChem BioAssay AID720709 (National Center for Advancing Translational Sciences (NCATS), 2013)
